# Hit rate of the full screen: of about 420,000 compounds, about 64,000 (15%) were called active. The inconclusive results got no clear call from the source; some entries with a clear call stand among them for comparison. The call rests on the fitted dose curve; in most records, active means well fitted inhibition curve with a large enough effect; inconclusive means small, poorly fitted or top-dose-only effect; inactive means flat fitted curve, though single readings scatter. No potency is given beside an inconclusive call; the fits are too rough.
# Assay: qHTS for Inhibitors of human tyrosyl-DNA phosphodiesterase 1 (TDP1): qHTS in cells in absence of CPT; further: nearly all actives have a fitted effect of over 55% in size
# Details: DT40 Tdp1-/- hTDP1 cells, no CPT, ATP luminescence, 48 h; activity change, negative = growth inhibition: at 46.2 µM (top of the series)
# Method in brief: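 Cells were dispensed at 400 per well, compounds added by pin tool, plates incubated ≥48 hr at 37 °C, then CellTiter-Glo added for 30 min at room temperature before luminescence reading. Line: DT40 Tdp1-/- complemented with hTDP1; camptothecin omitted.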
# On the % scale 0 is the no-effect control and ±100 the full control effect; potency means the concentration at half of the fitted maximal effect; tags describe the fitted curve by direction and shape.
Structure (SMILES),Potency,"activity change, negative = growth inhibition"
Cn1c(Cn2c(=O)sc3ccccc32)nnc1SCc1ccc(F)cc1,"inconclusive [inhibitor, single point]",
FC(F)Oc1ccccc1/C=N/Nc1nc2ccccc2o1,"inconclusive [inhibitor, single point]",
Cc1ccc(S(=O)(=O)N(C)CC(=O)N(C)CCOc2ccccc2)cc1,"inconclusive [inhibitor, single point]",
COc1ccc(C(=O)Cn2c(C)nc([N+](=O)[O-])c2Br)cc1,active: 23.1 µM,
Cc1ccc(-c2cn3c(n2)sc2cc(C(=O)NC4CCCCCC4)ccc23)c(C)c1,inactive,
Cc1cc(O)c2c(c1O)C(=O)c1c(O)cc(C)c(O)c1C2=O,inactive,
Cc1ccc(C)c(N2CCN(CCCNC(=O)c3ccc4nc(C(C)C)oc4c3)CC2)c1,active: 3.66 µM,
COc1cccc(-c2cn3c(n2)sc2cc(C(=O)NCCc4ccccc4)ccc23)c1,active: 7.31 µM,
S=c1nc[nH]c2c1cnn2Cc1ccccc1,active: 3.66 µM,
O=C1CC2c3ccccc3CCN2C(=O)CN1Cc1ccccc1 (centres undefined),inactive,
CCc1ccccc1NC(=O)CSc1nc2ccccc2nc1Cc1cccc(OC)c1,,inconclusive: -30.9% [inhibitor]
COc1ccc([C@H]2CC(=O)C=C(c3cc(Cl)ccc3C)C2)cc1,"inconclusive [inhibitor, single point]",
CC(C)c1nn2c(=O)cc(COC(=O)COc3ccccc3F)nc2s1,inactive,
Cc1cc(C(=O)CN2C(=O)NC3(CCCc4ccccc43)C2=O)c(C)n1Cc1ccccc1 (centres undefined),"inconclusive [inhibitor, single point]",
NC(=O)CC(NC(=O)Cc1ccc(Br)cc1)c1ccc(N2CCN(c3ccccc3)CC2)c([N+](=O)[O-])c1 (centres undefined),"inconclusive [inhibitor, single point]",
CCCc1ccc2oc(C(=O)N(C)Cc3cnccn3)c(C)c2c1,"inconclusive [inhibitor, single point]",
O=C(NCc1ccccc1)c1ccc2c(c1)sc1nc(-c3ccc(F)cc3)cn12,inactive,
O=C(NC1CCN(Cc2ccccc2)CC1)c1cccc(NS(=O)(=O)c2ccc(Br)cc2)c1,"inconclusive [inhibitor, single point]",
Cc1ccc(S(=O)(=O)Nc2ccccc2-c2ccccc2)cc1,active: 2.59 µM,
Cc1cc(-c2ccc(C)c(S(=O)(=O)N(C(C)C)C3CCCCC3)c2)on1,"inconclusive [inhibitor, single point]",
CCc1nc2ccccc2c(C(=O)OCc2nnc(-c3ccccc3)o2)c1C,"inconclusive [inhibitor, single point]",
CC(CNC(=O)COC(=O)c1ccco1)c1ccccc1 (centres undefined),inactive,
CCOC(=O)c1ccc(CN(Cc2ccc(Cl)cc2Cl)S(=O)(=O)c2cccc(Cl)c2)cc1,"inconclusive [inhibitor, single point]",
N[C@H]1CONC1=O,inactive,
COc1ccc(NS(=O)(=O)c2cccc(C(=O)N(C)Cc3cccs3)c2)cc1,"inconclusive [inhibitor, single point]",

Structure (SMILES),Potency,"activity change, negative = growth inhibition"
Cc1cnc(-n2ncc(C(=O)NCCc3cccnc3)c2C)nc1-c1ccc(F)cc1,"inconclusive [inhibitor, single point]",
O=C1Nc2ccccc2C12OC1CCCCC1O2 (centres undefined),inactive,
Cc1nc(NC(=O)c2ccco2)sc1-c1csc(Nc2ccc(Cl)cc2)n1,active: 16.4 µM,
Cc1noc(C)c1-c1nc(NCc2cccs2)c2ccccc2n1,active: 23.1 µM,
O=C(OCc1ccc(COC(=O)c2cccnc2Cl)cc1)c1cccnc1Cl,"inconclusive [inhibitor, single point]",
CCSc1nnc(NC(=O)CSc2nnc(CNC(=O)c3ccccc3F)o2)s1,inactive,
COc1ccc(CN(C2CCCC2)S(=O)(=O)c2ccc(-n3cnnn3)cc2)cc1,"inconclusive [inhibitor, single point]",
CC(C)C1C(=O)N(Cc2cn(CCC3OCCO3)nn2)CCS(=O)(=O)N1Cc1ccc(-c2cccc(N(C)C)c2)cc1 (centres undefined),"inconclusive [inhibitor, single point]",
CCc1nn2c(=O)cc(COc3ccc(/C=C4\C(=N)N5N=C(C)SC5=NC4=O)cc3)nc2s1,"inconclusive [inhibitor, single point]",
CC1(C)O[C@H]2[C@@H](O1)[C@@H](C(=O)Nc1cc(F)ccc1F)O[C@@H]1OC(C)(C)O[C@@H]12,inactive,
O=C(c1cc2ccccc2o1)N1CCN(CCOc2ccccc2)CC1,"inconclusive [inhibitor, single point]",
O=C(O)CCSc1nnc(-c2ccc(Cl)cc2Cl)o1,"inconclusive [inhibitor, single point]",
COCCNC(=S)N/N=C(\C)c1ccc(-n2ccnc2)cc1,active: 3.55 µM,
O=S1(=O)N=C(Nc2nc3c(s2)CCCC3)c2ccccc21,active: 5.17 µM,
Oc1ccccc1C1=NOC(O)(C(F)F)C1 (centres undefined),inactive,
CC(=O)Nc1cccc(C(=O)/C=C/c2ccc(N(C)C)cc2)c1,"inconclusive [inhibitor, single point]",
CCc1nnc(NC(=O)C(NS(=O)(=O)c2ccc3c(c2)OCCO3)C(C)C)s1 (centres undefined),inactive,
CCCCCn1c(=O)[nH]c2cc(C(=O)NCCN3C(C)CCCC3C)ccc2c1=O (centres undefined),"inconclusive [inhibitor, single point]",
N#Cc1ccc(Oc2ccc(/C=N/O)cn2)cc1,"inconclusive [inhibitor, single point]",
c1ccc(-c2nc(N3CCCC3)nc3ccccc23)cc1,"inconclusive [inhibitor, partial curve, poor fit]",
COc1ccc(/C=N/Nc2nc(Nc3ccccc3)nc(N3CCCC3)n2)cc1[N+](=O)[O-],active: 16.4 µM,
CC(C)(CNC(=O)c1cc(Cl)c(O)c(Cl)c1)N1CCCCC1,inactive,
Cc1ccc(NC(=O)c2ccccc2N(C)S(C)(=O)=O)cc1C,inactive,
CC1CN(c2ccc(Cl)cc2[N+](=O)[O-])CCN1S(C)(=O)=O (centres undefined),"inconclusive [inhibitor, single point]",
Cc1ccsc1C(=O)Nc1ccc(OCc2ccccc2)cc1,"inconclusive [inhibitor, single point]",

Structure (SMILES),Potency,"activity change, negative = growth inhibition"
Cc1cccc(-c2cc(C(=O)O)c3c(-c4ccc(F)cc4)[nH]nc3n2)c1,inactive,
Clc1c(Cl)c(Cl)c2n[nH]nc2c1Cl,"inconclusive [inhibitor, single point]",
CC(=O)c1c(OCC(=O)O)ccc2c(C)cc(=O)oc12,inactive,
CN(C)C1=NC[C@H](Cc2ccccc2)N1CCC1CCCC1,"inconclusive [inhibitor, single point]",
O=C(C1CCCN(Cc2ccccc2)C1)N1CCc2ccccc2C1 (centres undefined),"inconclusive [inhibitor, single point]",
Cc1c(Cl)cccc1N=Cc1ccc([N+](=O)[O-])s1,"inconclusive [inhibitor, single point]",
Cc1ccc(Nc2nc(N)nc(CCl)n2)cc1,"inconclusive [inhibitor, single point]",
CC1CCCCN1Cc1nc2c(c(=O)n(C)c(=O)n2C)n1CCc1ccccc1 (centres undefined),"inconclusive [inhibitor, partial curve, poor fit]",
Fc1ccccc1CCNc1c2c(nc3ncnn13)CCCC2,active: 5.17 µM,
COc1ccc(C)cc1NC(=O)c1ccccc1N(C)S(=O)(=O)c1ccccc1,active: 20.6 µM,
CN(Cc1cccs1)C(=O)COc1cccc2c1OC(C)(C)C2,inactive,
COc1ccc(-c2sc3ccc(N4CCOCC4)cc3c2-c2ccc(O)cc2)cc1,"inconclusive [inhibitor, single point]",
O=C(c1ccco1)N(Cc1ccc2c(c1)OCO2)Cc1cc2cc3c(cc2[nH]c1=O)OCO3,inactive,
CCn1c(SCC(=O)Nc2nc(-c3ccccc3)cs2)nnc1-c1ccccc1,"inconclusive [inhibitor, single point]",
Nc1ccc2nc(CCCCc3nc4ccccc4[nH]3)[nH]c2c1,inactive,
CCCc1c2c(cc3c(=O)cc(C(=O)OCC)oc13)CCCC2,"inconclusive [inhibitor, single point]",
O=C(C1CCN(S(=O)(=O)c2cccc3cccnc23)CC1)N1CCN(c2ccccn2)CC1,"inconclusive [inhibitor, single point]",
COc1cc2nc(CN3CCN(S(=O)(=O)c4cc(C)ccc4C)CC3)[nH]c(=O)c2cc1OC,"inconclusive [inhibitor, single point]",
COc1ccc(S(=O)(=O)N2CCC(C(=O)N[C@H](C(=O)NC3CCCC3)C(C)C)CC2)cc1,inactive,
CNc1cncc(-c2cccc(C(=O)N3CCOCC3)c2)n1,inactive,
O=C(COc1cc2oc(=O)cc(-c3ccccc3)c2cc1Cl)NCc1ccccn1,"inconclusive [inhibitor, single point]",
CCCNC(=O)C1(C)CCCN(Cc2ccc(C(F)(F)F)cc2)C1 (centres undefined),"inconclusive [inhibitor, single point]",
Nc1ncnc(NC2CCS(=O)(=O)C2)c1[N+](=O)[O-] (centres undefined),,inconclusive: -36.5% [inhibitor]
CCc1nc(SCC(=O)Nc2cc(C)on2)c2c(=O)n(C)c(=O)n(C)c2n1,"inconclusive [inhibitor, partial curve]",
